In the supplement of paper PMC3334620:
In all, about 33,000 sequences were measured (“E-score (-0.5 to 0.5)”: median about -0.016, highest 2% from about 0.32 on). The list shows a part of the results.

Each sequence was assayed against T1, Stp1 (UniProt B3LFK1) (assay: PBM E-score (8-mer binding enrichment) (E-score (-0.5 to 0.5)); higher = stronger / more preferred TF binding; most listed sequences are background and not binding sites). Conditions: protein concentration: 200 nM; construct: GST-full length.
T1 sequence: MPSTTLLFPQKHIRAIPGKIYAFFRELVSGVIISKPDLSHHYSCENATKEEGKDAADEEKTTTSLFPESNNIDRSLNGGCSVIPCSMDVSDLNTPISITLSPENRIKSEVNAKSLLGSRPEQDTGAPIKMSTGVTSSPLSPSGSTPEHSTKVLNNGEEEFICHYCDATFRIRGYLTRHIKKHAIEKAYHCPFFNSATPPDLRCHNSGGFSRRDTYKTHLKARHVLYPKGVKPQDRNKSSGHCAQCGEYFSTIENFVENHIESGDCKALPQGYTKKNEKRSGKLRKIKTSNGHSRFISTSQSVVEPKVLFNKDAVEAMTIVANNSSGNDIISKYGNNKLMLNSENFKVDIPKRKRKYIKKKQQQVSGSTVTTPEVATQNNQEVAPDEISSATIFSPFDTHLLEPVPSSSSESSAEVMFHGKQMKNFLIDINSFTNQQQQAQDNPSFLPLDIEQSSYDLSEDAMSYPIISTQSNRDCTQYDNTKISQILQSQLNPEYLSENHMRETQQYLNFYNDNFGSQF
Method: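 Universal 'all 10-mer' protein binding microarrays (Agilent AMADID 015681) probed with GST-tagged S. cerevisiae TFs (full-length or DBD) made by in vitro transcription/translation (PURExpress), about 100-200 nM. Bound TF was detected with fluorescent anti-GST. Each ungapped 8-mer (which stands for itself and its reverse complement) is scored by the PBM enrichment score (E-score), a modified Wilcoxon-Mann-Whitney statistic from -0.5 to +0.5, computed with the Universal PBM Analysis Suite. Scale: above 0.35 generally sequence-specific binding.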

| Sequence | PBM E-score |
| --- | --- |
| CTTGCACC | 0.0439 |
| AGGCGCTA | 0.358 |
| GACATTCC | -0.133 |
| CAAAACAA | -0.0461 |
| CCTGGGAG | -0.226 |
| GGGTGACC | -0.273 |
| AAGGGCTA | -0.192 |
| CGAGGATC | -0.0384 |
| TATCCGAA | 0.111 |
| GAGAGCCA | 0.0632 |
| CCGGGTTC | -0.118 |
| CCAGGCTC | -0.0925 |
| GCCAGGTA | 0.0834 |
| AAGATCAC | 0.214 |
| CGAACAGA | 0.0325 |
| ACCAAACC | -0.0128 |
| ACCGACAT | 0.107 |
| GTCGCGAA | -0.00552 |
| GCGATGCA | -0.156 |
| GAAGATCA | 0.0771 |
| AACGTTAC | -0.0304 |
| AACTATAC | 0.0425 |

| Sequence | PBM E-score |
| --- | --- |
| GACCACCA | -0.14 |
| ATTGGATG | 0.0406 |
| GATCTTTA | 0.0673 |
| AGGTCTTC | -0.21 |
| ACCTAGCT | -0.284 |
| AATGGAGT | -0.202 |
| AAAATCAT | 0.0294 |
| ATGTCCTG | -0.2 |
| CAGATAAA | 0.0136 |
| GGGCGATA | -0.147 |
| TCAGACAA | 0.0572 |
| AAACCCGG | -0.0513 |
| GTGCCCCA | 0.149 |
| AATTTCTA | 0.0762 |
| AAGCAGCA | -0.206 |
| ATTAGTCA | 0.0485 |
| CGAGGAAC | 0.137 |
| ATTCTGGA | 0.0538 |
| AGAAATGC | 0.13 |
| ACTATTAA | 0.175 |
| AATCGCAG | 0.0081 |
| GTTGCCAA | 0.0695 |

| Sequence | PBM E-score |
| --- | --- |
| AATATCGG | 0.0446 |
| CGGTCTGA | -0.0453 |
| CGTGTACC | -0.0873 |
| CACATACG | 0.116 |
| CAGTTGGC | -0.0796 |
| ACGCGATA | -0.0613 |
| GGCCATTA | 0.0667 |
| CAAAGGCA | 0.184 |
| TCGTCCAA | 0.107 |
| GCATGCCA | 0.025 |
| ATGGGAAT | -0.176 |
| GCCATTTA | 0.182 |
| CAGCATCA | 0.0143 |
| TATTTTGA | 0.0277 |
| AAACGACT | -0.089 |
| CTATCATA | 0.233 |
| CACGCTTC | -0.11 |
| CTGTTCAA | -0.00158 |
| GTGCGCTA | -0.151 |
| AAATAGCT | -0.0494 |
| CCCATTTC | -0.318 |
| CAAGTTAA | -0.0446 |

| Sequence | PBM E-score |
| --- | --- |
| ACTATACT | -0.0201 |
| TTCCCCAA | -0.128 |
| AACAATGG | -0.101 |
| GCGAATAC | 0.00434 |
| AACTCAAT | -0.0793 |
| CCGCATGC | 0.279 |
| AACTGGCA | 0.0485 |
| CCCAGCAG | -0.0374 |
| CGGTACCC | -0.188 |
| CTGCATAC | 0.0385 |
| ATCTCTAG | -0.0509 |
| ATACTTTA | 0.113 |
| CCGTCCCC | -0.154 |
| AATGTTCG | -0.14 |
| CCAGGCCA | -0.246 |
| TAGACAAA | 0.045 |
| GGTTGATA | -0.0307 |
| GAGAGGCC | -0.102 |
| AATTGTGT | -0.0776 |
| ACTCATAT | -0.00183 |
